The text below walks through data of patent US20260201007A1 (University of California, published 2026).

B1: WT C-term (Fc fusion)
chain: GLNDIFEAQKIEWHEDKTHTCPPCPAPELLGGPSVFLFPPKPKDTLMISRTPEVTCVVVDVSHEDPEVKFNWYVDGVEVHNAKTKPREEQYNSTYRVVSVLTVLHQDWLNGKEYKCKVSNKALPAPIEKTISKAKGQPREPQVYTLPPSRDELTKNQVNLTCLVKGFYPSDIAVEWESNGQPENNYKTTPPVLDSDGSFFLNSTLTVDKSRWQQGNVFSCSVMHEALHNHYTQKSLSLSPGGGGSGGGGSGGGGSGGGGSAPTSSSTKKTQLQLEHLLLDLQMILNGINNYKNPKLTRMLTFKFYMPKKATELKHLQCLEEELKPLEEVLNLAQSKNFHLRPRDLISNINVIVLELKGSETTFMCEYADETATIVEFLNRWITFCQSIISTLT
modifications: biotinylated with BirA enzyme (AviTag)
notes: also called WT C-term (Mono); monomeric biotinylated IL-2/Fc fusion, wild type, IL-2 at the C-terminus of Fc
B2: N88D C-term (Fc fusion)
chain: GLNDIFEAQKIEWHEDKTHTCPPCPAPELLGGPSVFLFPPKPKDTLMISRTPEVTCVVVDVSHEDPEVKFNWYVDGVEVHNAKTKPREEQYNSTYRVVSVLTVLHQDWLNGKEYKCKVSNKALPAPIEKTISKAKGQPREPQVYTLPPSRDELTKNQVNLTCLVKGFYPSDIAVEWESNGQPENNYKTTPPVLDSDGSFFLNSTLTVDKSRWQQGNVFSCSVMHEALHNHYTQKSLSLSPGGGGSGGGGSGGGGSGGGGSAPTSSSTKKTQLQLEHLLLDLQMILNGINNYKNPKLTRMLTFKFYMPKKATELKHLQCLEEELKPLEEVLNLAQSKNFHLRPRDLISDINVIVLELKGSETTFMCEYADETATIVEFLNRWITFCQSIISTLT
modifications: biotinylated with BirA enzyme (AviTag)
notes: The mutation is numbered on mature IL-2; also called N88D C-term (Mono); monomeric N88D
B3: V91K C-term (Fc fusion)
chain: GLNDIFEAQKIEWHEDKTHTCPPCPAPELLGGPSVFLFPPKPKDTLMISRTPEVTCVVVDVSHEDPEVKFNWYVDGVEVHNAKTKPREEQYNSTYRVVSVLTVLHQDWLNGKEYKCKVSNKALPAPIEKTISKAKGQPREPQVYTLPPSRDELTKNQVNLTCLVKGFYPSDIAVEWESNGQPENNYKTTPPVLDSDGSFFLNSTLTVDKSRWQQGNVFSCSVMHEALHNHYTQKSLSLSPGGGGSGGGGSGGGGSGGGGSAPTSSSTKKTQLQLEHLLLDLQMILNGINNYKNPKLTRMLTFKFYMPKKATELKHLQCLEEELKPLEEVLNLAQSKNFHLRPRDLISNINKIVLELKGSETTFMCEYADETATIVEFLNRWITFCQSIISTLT
modifications: biotinylated with BirA enzyme (AviTag)
notes: also called V91K C-term (Mono)
B4: WT N-term (Fc fusion)
chain: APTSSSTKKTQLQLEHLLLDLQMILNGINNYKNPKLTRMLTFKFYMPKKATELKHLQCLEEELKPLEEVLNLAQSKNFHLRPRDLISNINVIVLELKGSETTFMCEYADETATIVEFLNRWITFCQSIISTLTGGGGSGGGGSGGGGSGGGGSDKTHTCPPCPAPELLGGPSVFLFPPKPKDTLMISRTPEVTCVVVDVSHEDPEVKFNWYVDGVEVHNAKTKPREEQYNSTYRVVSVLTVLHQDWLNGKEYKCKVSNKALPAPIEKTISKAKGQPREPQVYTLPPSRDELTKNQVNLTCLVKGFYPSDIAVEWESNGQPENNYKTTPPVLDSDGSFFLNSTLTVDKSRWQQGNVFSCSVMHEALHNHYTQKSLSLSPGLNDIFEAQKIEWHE
modifications: biotinylated with BirA enzyme (AviTag)
notes: also called WT N-term (Mono); monomeric biotinylated IL-2/Fc fusion, wild type, IL-2 at the N-terminus of Fc
B5: R38Q N-term (Fc fusion)
chain: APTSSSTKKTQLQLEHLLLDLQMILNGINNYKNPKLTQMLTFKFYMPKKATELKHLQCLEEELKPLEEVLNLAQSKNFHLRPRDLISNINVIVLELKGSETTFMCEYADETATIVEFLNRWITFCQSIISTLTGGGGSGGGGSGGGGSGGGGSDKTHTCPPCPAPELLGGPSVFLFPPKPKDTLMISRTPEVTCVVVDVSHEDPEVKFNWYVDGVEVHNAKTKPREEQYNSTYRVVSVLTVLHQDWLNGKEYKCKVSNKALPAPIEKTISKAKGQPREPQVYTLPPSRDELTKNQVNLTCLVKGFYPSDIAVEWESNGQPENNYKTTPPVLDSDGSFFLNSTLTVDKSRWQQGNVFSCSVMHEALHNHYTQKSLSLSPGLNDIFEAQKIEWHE
modifications: biotinylated with BirA enzyme (AviTag)
notes: The mutation is numbered on mature IL-2; also called R38Q N-term (Mono)
B6: H16N N-term (Fc fusion)
chain: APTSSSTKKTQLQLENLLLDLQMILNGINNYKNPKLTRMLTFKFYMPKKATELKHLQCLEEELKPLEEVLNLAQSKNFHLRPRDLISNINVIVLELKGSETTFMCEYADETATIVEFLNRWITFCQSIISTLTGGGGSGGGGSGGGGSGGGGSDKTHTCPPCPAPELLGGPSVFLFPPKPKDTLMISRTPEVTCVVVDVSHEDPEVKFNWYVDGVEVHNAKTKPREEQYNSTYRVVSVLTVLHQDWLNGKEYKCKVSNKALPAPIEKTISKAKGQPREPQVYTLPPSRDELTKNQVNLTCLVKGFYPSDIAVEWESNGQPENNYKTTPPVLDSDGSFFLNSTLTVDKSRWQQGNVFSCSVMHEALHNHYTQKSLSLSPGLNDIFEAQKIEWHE
modifications: biotinylated with BirA enzyme (AviTag)
notes: The mutation is numbered on mature IL-2; also called H16N N-term (Mono)
B7: F42Q N-Term (Fc fusion)
chain: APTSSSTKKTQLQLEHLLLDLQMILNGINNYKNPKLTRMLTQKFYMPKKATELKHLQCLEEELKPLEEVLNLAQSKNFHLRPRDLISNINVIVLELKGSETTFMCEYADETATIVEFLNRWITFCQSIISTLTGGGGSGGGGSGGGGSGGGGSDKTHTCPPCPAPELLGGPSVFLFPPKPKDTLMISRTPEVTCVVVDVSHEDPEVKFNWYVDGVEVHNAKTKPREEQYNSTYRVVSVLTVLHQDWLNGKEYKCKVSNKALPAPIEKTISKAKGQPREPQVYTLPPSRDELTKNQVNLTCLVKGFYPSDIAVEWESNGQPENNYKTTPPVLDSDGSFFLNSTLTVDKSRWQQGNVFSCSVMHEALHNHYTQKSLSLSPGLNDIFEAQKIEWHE
modifications: biotinylated with BirA enzyme (AviTag)
notes: The mutation is numbered on mature IL-2; also called F42Q N-Term (Mono)

In one test the target is T1, IL2Rα ectodomain with a C-terminal 6×His tag (UniProt P01589 22-240, limits assumed).
T1 construct: extracellular domain; Purified on Nickel-NTA; Neither the species nor the construct limits are stated; also called CD25
T1 sequence: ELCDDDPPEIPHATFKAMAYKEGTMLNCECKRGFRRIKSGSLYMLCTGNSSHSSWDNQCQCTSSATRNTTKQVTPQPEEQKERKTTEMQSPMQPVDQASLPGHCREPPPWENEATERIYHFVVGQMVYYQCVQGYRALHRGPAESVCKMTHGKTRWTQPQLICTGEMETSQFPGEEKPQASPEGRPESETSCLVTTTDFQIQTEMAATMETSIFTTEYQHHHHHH
Put plainly: Octet BLI; biotinylated monomeric IL-2/Fc on streptavidin sensors, IL2Rα in solution; equilibrium binding.
B1 had a Kd of 0.54 nM.

For B2, the dissociation constant Kd turned out to be 1.01 nM.

In the case of B3, the Kd came out at 0.69 nM.

The molecule B4 returned a Kd of 0.19 nM.

Take B5: the Kd came out at 0.71 nM.

As for B6, the Kd came to 0.43 nM.

Turning to B7, binding was characterised by a dissociation constant (Kd) of 9.48 nM.

The next test concerns the target T2, IL2Rβ/γ Fc heterodimer (UniProt P14784 27-240; P31785 23-262).
T2 construct: extracellular domain; also called IL2Rβ/γc; not shown: heterodimerizing Fc portion
T2 sequence 1: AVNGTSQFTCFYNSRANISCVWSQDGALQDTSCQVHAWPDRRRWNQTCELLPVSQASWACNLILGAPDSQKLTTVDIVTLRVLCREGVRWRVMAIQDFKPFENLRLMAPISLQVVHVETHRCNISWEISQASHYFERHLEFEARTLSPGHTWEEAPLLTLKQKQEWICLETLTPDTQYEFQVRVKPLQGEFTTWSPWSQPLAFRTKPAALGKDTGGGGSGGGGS
T2 sequence 2: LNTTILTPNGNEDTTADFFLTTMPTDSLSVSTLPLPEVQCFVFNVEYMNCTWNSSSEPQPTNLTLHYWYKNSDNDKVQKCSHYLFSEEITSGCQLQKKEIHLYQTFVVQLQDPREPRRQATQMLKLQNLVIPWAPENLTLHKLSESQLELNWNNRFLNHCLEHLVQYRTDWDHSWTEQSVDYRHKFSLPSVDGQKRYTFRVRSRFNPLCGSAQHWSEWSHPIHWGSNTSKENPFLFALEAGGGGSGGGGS
Description: Octet BLI; biotinylated monomeric IL-2/Fc on streptavidin sensors, IL2Rβ/γ Fc heterodimer in solution; 1:1 kinetic fit. (Biolayer interferometry detects binding as a change in optical thickness at a sensor tip.)
Turning to B1, the Kd turned out to be 3.04 nM.

In turn, B2 yielded an equilibrium dissociation constant (Kd) of 24 nM.

The molecule B4 showed an equilibrium dissociation constant (Kd) of 5.3 nM.

As to B5, binding was characterised by a dissociation constant (Kd) of 4 nM.

B6 gave a dissociation constant Kd of 22.4 nM.

Consider B7, for which binding was characterised by a dissociation constant (Kd) of 2.81 nM.

The Kd is the constant that tells how readily two partners part at equilibrium.
